# In article PMC4336329 (PLoS ONE, 2015):
# Out of some 310,000 compounds screened, about 2,200 (0.71%) showed an effect of 50% or more. Effects have a minus sign here. The list shows a part of the results.
# Target: human ether-à-go-go-related gene (hERG) potassium channel (human, UniProt Q12809)
# Experiment: primary screen, population patch clamp on CHO cells stably expressing hERG
# human ether-à-go-go-related gene (hERG) potassium channel, sequence (Q12809 whole entry, looked up): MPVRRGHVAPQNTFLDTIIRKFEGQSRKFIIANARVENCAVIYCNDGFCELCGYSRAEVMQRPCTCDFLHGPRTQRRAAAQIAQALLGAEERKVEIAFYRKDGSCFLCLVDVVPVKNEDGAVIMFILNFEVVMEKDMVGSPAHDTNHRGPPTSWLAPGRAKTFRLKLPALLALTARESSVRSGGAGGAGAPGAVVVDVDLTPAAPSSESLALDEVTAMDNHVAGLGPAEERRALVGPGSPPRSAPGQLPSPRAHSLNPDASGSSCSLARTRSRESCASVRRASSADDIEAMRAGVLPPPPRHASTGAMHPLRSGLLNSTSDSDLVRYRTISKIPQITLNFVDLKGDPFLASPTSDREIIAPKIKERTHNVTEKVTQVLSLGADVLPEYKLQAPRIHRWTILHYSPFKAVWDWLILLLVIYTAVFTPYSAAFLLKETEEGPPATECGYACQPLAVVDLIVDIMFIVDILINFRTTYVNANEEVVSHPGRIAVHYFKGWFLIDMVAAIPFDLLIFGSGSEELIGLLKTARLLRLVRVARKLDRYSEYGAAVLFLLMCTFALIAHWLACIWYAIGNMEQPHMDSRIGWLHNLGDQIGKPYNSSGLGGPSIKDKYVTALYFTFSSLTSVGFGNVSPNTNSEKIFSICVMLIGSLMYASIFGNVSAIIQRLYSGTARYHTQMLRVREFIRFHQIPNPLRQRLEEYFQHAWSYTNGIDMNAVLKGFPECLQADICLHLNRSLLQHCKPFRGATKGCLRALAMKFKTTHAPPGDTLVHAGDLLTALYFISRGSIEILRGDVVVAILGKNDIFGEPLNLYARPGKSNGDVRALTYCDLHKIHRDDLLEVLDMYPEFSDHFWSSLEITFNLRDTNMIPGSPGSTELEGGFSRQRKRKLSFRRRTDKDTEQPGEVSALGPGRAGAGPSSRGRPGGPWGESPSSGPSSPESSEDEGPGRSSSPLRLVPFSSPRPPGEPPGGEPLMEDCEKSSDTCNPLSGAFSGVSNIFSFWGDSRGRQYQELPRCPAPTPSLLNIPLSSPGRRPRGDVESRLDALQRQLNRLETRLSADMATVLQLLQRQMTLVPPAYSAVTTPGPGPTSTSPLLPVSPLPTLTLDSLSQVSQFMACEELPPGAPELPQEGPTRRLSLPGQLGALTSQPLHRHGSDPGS
row,Compound,"hERG current change (%, negative = inhibition) at 1uM [%]"
1,S=C(NN=C1CCCCCC1)Nc1ccc(Cl)cc1,11
2,NC(=O)COc1ccc(=O)n(-c2ccccc2)n1,7.7
3,NC(=O)CC[C@@H]1NC(=O)[C@H](CO)NC(=O)c2cc([N+](=O)[O-])cc(I)c2NCCC[C@@H](C(N)=O)NC(=O)[C@H](Cc2ccc(O)cc2)NC1=O,5.75
4,Cn1c(=O)c2c(ncn2CCCl)n(C)c1=O,20.2
5,O=C(N/N=C/c1ccc(-c2cccc([N+](=O)[O-])c2)o1)c1ccccc1O,15.2
6,COc1ccc(CNC(=S)N2CCN(S(=O)(=O)c3cccc(F)c3)CC2)cc1,12.5
7,COc1ccc(C(=O)OC2CCN(c3ncc(C(F)(F)F)cc3Cl)CC2)cc1,0.371
8,Cc1cccc(CC(=O)N2CCC(N3CCC(C(=O)N4CCOCC4)CC3)CC2)c1,9.98
9,O=C(NCCNC(=O)c1cc(OCC(F)(F)F)ccc1OCC(F)(F)F)Nc1ccccc1,-15
10,N#CCSc1nccc(-c2cc(Cl)sc2Cl)n1,0.129
11,COc1ccc2oc(C(=O)Nc3nc(C)cs3)c(C)c2c1,6
12,O=C(Nc1ccc(-n2ccnc2P(=O)(O)c2ccccc2)cc1)c1ccccc1Cl,13.2
13,OC1(c2ccc(OC(F)F)cc2)CSC(=Nc2cccnc2)N1C1CC1 (centres unmarked),-4.46
14,CC(C)NC(=O)Cn1nnc(-c2ccc(Cl)cc2)n1,-0.749
15,Cc1cccc(N2CCN(C(=O)c3cnn4c(C(F)F)cc(-c5ccccc5)nc34)CC2)c1C,-2.25
16,Oc1ccccc1/C=N/NC(=S)NCCc1ccccc1,13.4
17,CSCC[C@H](NC(=O)N1CCn2c1nc1ccccc12)C(=O)N[C@H](Cc1ccccc1)C(=O)O,1.65
18,Cc1ccc(S(=O)(=O)N(CC(=O)NC2CCCC2)c2cccc(C)c2)cc1,4.72
19,Cc1cc(NS(=O)(=O)c2ccc(NC(=S)NC(=O)c3ccccc3)cc2)no1,4.47
20,CNCCCOc1ccc(C)cc1Br.O=C(O)C(=O)O,3.15
21,COc1ccc(-n2nnnc2SCC(=O)Nc2nnc(C)s2)cc1OC,-7.62
22,C=C(C)CCC(C)N1CCC(n2nccc2NC(=O)CCOc2ccccc2)CC1 (centres unmarked),10.3

row,Compound,"hERG current change (%, negative = inhibition) at 1uM [%]"
1,CCN(CC)c1ccc(NC(=O)c2ccccc2Br)cc1S(=O)(=O)Nc1ccccc1OC,1.82
2,O=C(CN(Cc1ccco1)C(=O)c1cc(=O)[nH]c2ccccc12)Nc1ccccc1Br,-2.41
3,COc1ccccc1-c1csc(-n2ncc(C#N)c2N)n1,29.4
4,CCOC(=O)C1(Cc2ccc(OC)cc2)CCN(C(=O)Cn2cnnn2)CC1,-0.482
5,O=c1ccc(Cl)cn1Cc1ccccc1F,0.163
6,COC(=O)c1ccccc1NC(=O)CCCCCn1nnc2ccccc2c1=O,17
7,COc1ccc(C2(C)NC(=O)N(CC(=O)NC3CCCC3)C2=O)cc1OC (centres unmarked),17.7
8,O=C(/C=C/c1ccccc1Cl)N(Cc1ccccc1)C1CCS(=O)(=O)C1 (centres unmarked),6.7
9,C=CCSc1nc2ccccc2c(=O)n1C1CCOC(C)(C)C1 (centres unmarked),34.1
10,O=c1c2cc(N3CCOCC3)ccc2[nH]c(=S)n1CCCN1CCN(c2ccccc2F)CC1,0.408
11,CC(C(=O)N1CCc2ccccc21)N1CCN(Cc2ccccc2)CC1 (centres unmarked),4.18
12,O=S1(=O)N=C(N2CCc3ccccc3C2)c2ccccc21,-8.05
13,COc1ccc(C(CC(=O)O)NC(=O)c2sc3ccccc3c2Cl)cc1 (centres unmarked),4.51
14,COc1cc(OC)cc(C(=O)N/N=C/c2ccc(OC)c(COc3ccc4ccccc4c3)c2)c1,10.8
15,O=C(Nc1cccc2ncccc12)C(c1ccccc1)c1ccccc1,6.03
16,COc1ccc(CCNCc2ccsc2)cc1OC,17.8
17,COc1ccc(CC(=O)n2[nH]c(=O)cc(C)c2=O)cc1OC,6.44
18,O=C(NNC(=O)c1ccc(-n2cncn2)c([N+](=O)[O-])c1)c1ccccc1,13
19,Cc1ccc(Cl)cc1NC(=O)CCn1cccc1,10.3
20,CC(C)C(c1nnnn1Cc1ccco1)N1CCN(c2cccc(Cl)c2)CC1 (centres unmarked),9.2
21,CCSC1=C(C#N)C(c2ccc(C)s2)CC(=O)N1 (centres unmarked),5.87
22,C#CCSc1nc(=O)c2cccnc2n1-c1ccc(C)cc1,-1.46
